Measurements published in PubChem BioAssay AID1159614 (National Center for Advancing Translational Sciences (NCATS), 2016).
Out of some 45,000 compounds screened, about 65 (0.1%) were called active. Calls follow the shape of the dose curve; as a rule, active = well fitted activation curve with a large enough effect; inconclusive = small, poorly fitted or top-dose-only effect; inactive = no such curve, though single readings can be large or run the other way. Some of the results follow.

The molecules below were run against Galactocerebrosidase (Homo sapiens) (UniProt P54803) (assay: A Novel Cell-Based Assay to Identify Small Molecules for B -Galactocerebrosidase). Settings: 145M-Twi-hGALC-G270D cells (Twitcher mouse brain line with human GALC G270D), HMU-beta-Gal fluorescence, 48 h; series mostly up to 57.5 µM; activation: at the top concentration.
Chain of UniProt P54803 (P54803 whole entry, looked up): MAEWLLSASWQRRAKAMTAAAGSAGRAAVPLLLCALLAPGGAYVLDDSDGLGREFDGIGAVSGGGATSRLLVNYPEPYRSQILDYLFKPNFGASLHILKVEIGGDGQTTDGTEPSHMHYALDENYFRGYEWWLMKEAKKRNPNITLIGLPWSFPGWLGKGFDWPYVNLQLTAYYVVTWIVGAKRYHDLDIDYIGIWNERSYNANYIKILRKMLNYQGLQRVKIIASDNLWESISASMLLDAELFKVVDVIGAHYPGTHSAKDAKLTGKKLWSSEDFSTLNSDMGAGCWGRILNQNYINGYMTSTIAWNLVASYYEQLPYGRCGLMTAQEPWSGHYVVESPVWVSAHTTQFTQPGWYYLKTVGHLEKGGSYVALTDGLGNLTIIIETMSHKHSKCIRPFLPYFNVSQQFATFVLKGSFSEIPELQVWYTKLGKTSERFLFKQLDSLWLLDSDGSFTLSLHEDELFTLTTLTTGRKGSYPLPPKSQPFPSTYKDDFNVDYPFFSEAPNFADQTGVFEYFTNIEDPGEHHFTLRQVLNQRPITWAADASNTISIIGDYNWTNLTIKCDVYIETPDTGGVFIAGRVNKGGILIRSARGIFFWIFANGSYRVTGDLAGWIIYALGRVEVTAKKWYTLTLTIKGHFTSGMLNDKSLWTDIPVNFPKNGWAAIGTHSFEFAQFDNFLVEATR
How it was run: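 Fluorogenic HMU-b-Gal hydrolysis (0.1 mM final, pH 5.2 citrate-phosphate with 1 mg/mL sodium taurocholate; carbonate stop buffer) measures mutant GALC activity after compound treatment of live 145M-Twi Twitcher brain cells stably carrying human GALC-G270D, with wild-type GALC line alongside; activation sought.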
Also: 0% is about no effect; nearly all actives have a fitted effect of over 65% in size.

| SMILES | activation |
| --- | --- |
| COc1ccc(OC)c(NC(=O)C2CCCN(S(=O)(=O)c3ccc4[nH]c(=O)ccc4c3)C2)c1 (configuration not stated) | inactive: -6.99% |
| NC(=O)CSc1nc2cc3c(cc2c(=O)n1CCCCCC(=O)NCc1ccc2c(c1)OCO2)OCO3 | inactive: -7.08% |
| COc1ccc(OC)c(NC(=O)CSc2c3c(nc4cc(Cl)ccc24)CCCC3)c1 | inactive: -4.89% |
| CC(=O)c1cccc(NC(=O)CCS(=O)(=O)c2ccc3c(c2)n(C)c(=O)c(=O)n3C)c1 | inactive: -5.26% |
| CCCCCCNC(=O)CCc1c(C)nc2nc(-c3cc(OC)cc(OC)c3)nn2c1C | inactive: 0.178% |
| Cc1ccc(C(=O)c2cn(Cc3cc(C)ccc3C)c3nc(C)ccc3c2=O)cc1 | inactive: 0.047% |
| CCOCCCNC(=O)C(NC(=O)C1CCC(C)CC1)C(C)C (configuration not stated) | inactive: -4.42% |
| CN(C1CCCCC1)S(=O)(=O)c1ccc2c(c1)c(=O)c(C(=O)N1CCN(c3ccc(F)cc3)CC1)cn2C | inactive: -12.9% |
| COc1ccc(-c2cn3c(n2)sc2cc(C(=O)NCC(C)c4ccccc4)ccc23)cc1 (configuration not stated) | inactive: -8.47% |
| CCOC(=O)N1CCN(Cc2nc3cc(NC(=O)c4ccc(F)cc4)ccc3n2C(C)C)CC1 | inactive: -28.7% |
| Cc1ccc(CCNC(=O)c2cnc3c(C)cccn3c2=O)cc1 | inactive: 1.1% |
| Cc1c(Cl)cccc1NC(=O)Nc1nnc(N(C)C2CCCCC2)s1 | inactive: -11.8% |
| CC(=O)Nc1ccc(NC(=O)C(NC(=O)C2CCC(C)CC2)C(C)C)cc1 (configuration not stated) | inactive: -11.4% |
| CCS(=O)(=O)n1nc(-c2ccco2)nc1NCc1ccc(C(C)C)cc1 | inactive: -18.3% |
| CC(C)c1cc(C(=O)NCc2ccc(F)cc2)no1 | inactive: -9.22% |
| CCc1ccccc1NC(=O)c1nn(-c2ccc(C)cc2)c(=O)c2c1c1ccccc1n2C | inactive: -13.9% |
| CCc1ccc(Cn2nnc3c(=O)[nH]c(C4CCCN(C(=O)c5cccc(Cl)c5)C4)nc32)cc1 (configuration not stated) | inactive: 1.72% |
| O=C(Nc1ccc(F)cc1)c1ccc(CN2CC(=O)N3CCCCC3C2=O)cc1 (configuration not stated) | inactive: -10.3% |
| COc1ccc(C)cc1NC(=O)C1CCC(CNS(=O)(=O)c2ccc3c(c2)CCCC(=O)N3)CC1 (configuration not stated) | inactive: 0.899% |
| Cc1ccc(-n2cnc3cc(C(=O)NC4CCCCCC4)ccc32)c(C)c1 | inactive: -17.6% |
| CCCOc1cccc(C2c3c(oc4ccc(F)cc4c3=O)C(=O)N2CCCN2CCOCC2)c1 (configuration not stated) | inactive: 2.2% |

| SMILES | activation |
| --- | --- |
| Cc1ccc(CN(Cc2ccco2)C(=O)c2ccccc2Br)o1 | inactive: 2.7% |
| Cc1ccc(S(=O)(=O)c2nnn3c2nc(NC2CCCCCC2)c2sccc23)cc1C | inactive: -7.63% |
| CC(C)c1nn2c(=O)cc(COC(=O)C3CCCCC3)nc2s1 | inactive: -10.9% |
| Cc1cc(Br)cc(C)c1NC(=O)c1sc2ncn(Cc3cccc(F)c3)c(=O)c2c1C | inactive: -5.72% |
| CC1CCN(C(=O)c2cc3c(=O)n(C)c4cc(Cl)ccc4c3s2)CC1 | inactive: -12.4% |
| Cc1nc(-c2ccc(S(=O)(=O)N3CCN(c4cccc(C(F)(F)F)c4)CC3)cc2)co1 | inactive: -13.7% |
| CCCOc1ccc(-c2nonc2NC(=O)c2ccco2)cc1OCCC | inactive: 0.953% |
| COc1cccc(-c2csc(-c3c(N)c(C(=O)c4ccc5c(c4)OCO5)n4ccccc34)n2)c1 | inactive: -12.9% |
| CCOc1ccc(C2C(C(=O)Nc3ccccc3)=C(C)Nc3nc(-c4ccccc4)nn32)cc1OC (configuration not stated) | inactive: -4.42% |
| O=C(Cn1c(-c2cccs2)cc2ccccc21)N1CCN(c2ccc(Cl)cc2)CC1 | inactive: -8.5% |
| Cc1ccc(S(=O)(=O)NC(=O)NN2CCCCCC2)cc1 | inactive: -16.7% |
| Cc1ccc(NC(=O)Cn2c(=O)c3ccc(Cl)cc3n3nncc23)cc1 | inactive: 1.83% |
| CCNC(=O)c1ccc(C)c(-n2c(C)nc3cccnc32)c1 | inactive: 0.843% |
| COc1ccc(OC)c(NC(=O)C(C)n2c(=O)cc(C)c3c(C)nn(-c4ccccc4)c32)c1 (configuration not stated) | inactive: -11.2% |
| Cc1cc(C)n(CCc2nc3c4ccccc4nc(SCc4ccc(F)cc4)n3n2)n1 | inactive: -1.55% |
| Cc1ccc(CNC(=O)c2c[nH]c3ccc(S(=O)(=O)N4CCOCC4)cc3c2=O)cc1 | inactive: -21% |
| O=c1c2cnn(-c3ccc(F)cc3)c2ncn1Cc1ccccc1Cl | inactive: -9.41% |
| COc1ccc(-c2cn3c(n2)sc2cc(C(=O)NCCC4=CCCCC4)ccc23)cc1 | inactive: -11.6% |
| CC(=O)c1ccc(S(=O)(=O)Nc2ccc(-c3cn4c(C)csc4n3)cc2)cc1 | inactive: 7.91% |
| COc1ccc(C)cc1NC(c1nnc(-c2ccccc2)o1)c1ccc(F)cc1Cl (configuration not stated) | inactive: -12.8% |
| CCOC(=O)c1c(NC(=O)c2ccc(C)cc2)sc2c1CCCCC2 | inactive: -8.94% |

| SMILES | activation |
| --- | --- |
| N#Cc1ccccc1NC(=O)CSc1nc(-c2ccccc2)cc(C(F)(F)F)c1C#N | inactive: -3.77% |
| CCc1ccc(N2CC(c3nnc(NC(=O)c4ccco4)s3)CC2=O)cc1 (configuration not stated) | inactive: -16.8% |
| Cc1c(C(=O)Nc2ccc(F)cc2F)oc2c1-c1nn(Cc3c(F)cccc3Cl)cc1CC2 | inactive: -13.8% |
| Cc1ccc(Cc2cnc(NC(=O)c3ccc4c(c3)CC(c3ccccc3)OC4=O)s2)cc1 (configuration not stated) | inactive: -16.1% |
| O=C(NC1CC(=O)N(c2ccc(F)cc2)C1)C1CCCC1 (configuration not stated) | inactive: -3.32% |
| Cc1ccc(Nc2nc(-c3ccccc3)nc3ccccc23)cc1 | inactive: -22.4% |
| COc1cc(Cl)c(C)cc1NC(=O)c1cc(S(=O)(=O)N2CCCC2)ccc1F | inactive: -11.4% |
| Cc1cc(NC(=O)c2ccccc2F)ccc1-c1nc2ccccc2s1 | inactive: -15.2% |
| COc1ccc(C(=O)N2CC(=O)Nc3ccc(Br)cc3C2c2ccc(F)cc2)cc1OC (configuration not stated) | inactive: -19.5% |
| CCc1ccc(NC(=O)c2sc(-n3nc(C)c(CCC(C)C)c3C)nc2C)cc1 | inactive: -1.73% |
| Cc1cccc(C)c1OCC(=O)N(Cc1ccccc1F)C1CCS(=O)(=O)C1 (configuration not stated) | inactive: -21.2% |
| COc1ccc(NC(=O)c2ccc3oc(=O)c(S(=O)(=O)c4ccc(F)cc4)cc3c2)cc1OC | inactive: -17.9% |
| CCOC(=O)Cc1ccc(NC(=O)N(Cc2ccc(OC)cc2)C2CCN(C(C)=O)CC2)cc1 | inactive: -9.36% |
| CCOC(=O)c1c(NC(=O)/C(C#N)=C/c2ccc(OC)cc2)sc2c1CCC2 | inactive: -9.56% |
| O=C(Nc1ccccc1-c1nc2ccccc2s1)c1ccc(F)cc1 | inactive: -6.08% |
| Clc1ccc(-c2cc3ncc4c(n3n2)-c2ccccc2OC4)cc1 | inactive: -7.19% |
| COc1ccc(CCNc2nc3c(-c4cccc(C(F)(F)F)c4)nnn3c3ccccc23)cc1OC | inactive: -10.8% |
| Cc1ccc(CN2CCCn3nc(C(=O)NCc4ccc(N(C)C)cc4)cc3C2=O)cc1 | inactive: -9.3% |
| CCOc1ccc(NC(=O)c2cc3cc(C)ccc3n2C)cc1 | inactive: -14.9% |
| CC(C)CNC(=O)Nc1cc(C(=O)NCc2ccc(C(C)C)cc2)ccc1N1CCCC1 | inactive: -2.6% |
